Key:
human C4b (human) = target: T1, human C4b (human) (UniProt P0C0L4)
T1 sequence: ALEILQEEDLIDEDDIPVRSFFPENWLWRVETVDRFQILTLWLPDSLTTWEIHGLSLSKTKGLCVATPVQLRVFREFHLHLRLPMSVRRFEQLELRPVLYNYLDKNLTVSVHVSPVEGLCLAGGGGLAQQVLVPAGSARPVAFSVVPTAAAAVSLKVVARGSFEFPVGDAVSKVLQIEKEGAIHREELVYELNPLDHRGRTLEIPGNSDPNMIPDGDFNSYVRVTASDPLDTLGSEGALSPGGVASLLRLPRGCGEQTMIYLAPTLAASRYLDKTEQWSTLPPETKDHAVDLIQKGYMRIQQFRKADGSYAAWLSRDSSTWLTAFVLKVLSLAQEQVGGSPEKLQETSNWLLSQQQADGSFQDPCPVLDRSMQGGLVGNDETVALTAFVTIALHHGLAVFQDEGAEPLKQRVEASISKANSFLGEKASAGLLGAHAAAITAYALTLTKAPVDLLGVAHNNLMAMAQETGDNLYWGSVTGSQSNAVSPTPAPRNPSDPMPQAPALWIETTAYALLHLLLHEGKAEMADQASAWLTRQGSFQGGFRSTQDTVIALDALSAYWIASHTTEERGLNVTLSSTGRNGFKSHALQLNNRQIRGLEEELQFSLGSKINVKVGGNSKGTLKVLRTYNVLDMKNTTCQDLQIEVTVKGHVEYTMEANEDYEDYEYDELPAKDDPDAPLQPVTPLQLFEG

[1] = target: soluble human C3b (human) (UniProt P01024)

| Binder | C4c EC50 (human C4b (human)) | iC3b EC50 [1] |
| --- | --- | --- |
| CFI-HSA variant Y408L; N531G; … (SEQ ID NO: 26); CCP_1-4 (enzyme) [in this place about 600 residues]GGSSGGKVTYTSQEDLVEKKCLAKKYTHLSCDKVFCQPWQRCIEGTCVCKLPYQCPKNGTAVCATNRRSFPTYCQQKSLECLHPGTKFLNNGTCTAEGKFSVSLKHGNTDSEGIVEVKLVDQDKTMFICKSSWSMREANVACLDLGFQQGADTQRRFKLSDLSINSTECLHVHCRGLETSLAECTFTKRRTMGYQDFADVVCYTQKADSPMDDFFQCVNGKYISQMKACDGINDCGDQSDELCCKACQGKGFHCKSGVCIPSQYQCNGEVDCITGEDEVGCAGFASVTQEETEILTADMDAERRRIKSLLPKLSCGVKNRMHIRRKRIVGGKRAQLGDLPWQVAIKDASGITCGGIYIGGCWILTAAHCLRASKTHRYQIWTTVVDWIHPDLKRIVIEYVDRIIFHENYNAGTLQNDIALIEMKKDGNKKDCELPRSIPACVPWSPYLFQPNDTCIVSGWGREKDNERVFSLQWGEVKLISNCSKFYGNRFYEKEMECAGTYDGSIDACKGDSGGPLVCMDANNVTYVWGVVSWGEGCGKPEFPGVYTKVANYFDWISYHVGRPFISQYNVGGSSGGSSGGEDCNELPPRRNTEILTGSWSDQTYPEGTQAIYKCRPGYRSLGNVIMVCRKGEWVALNPLRKCQKRPCGHPGDTPFGTFTLTGGNVFEYGVKAVYTCNEGYQLLGEINYRECDTDGWTNDIPICEVVKCLPVTAPENGKIVSSAMEPDREYHFGQAVRFVCNSGYKIEGDEEMHCSDDGFWSKEKPKCVEISCKSPDVINGSPISQKIIYKENERFQYKCNMGYEYSERGDAVCTESGWRPLPSCEE | 44.1 nM |  |
| CFI-HSA variant ΔC-term (Δ557-… (SEQ ID NO: 27)-565) (enzyme) [in this place about 600 residues]GGSSGGKVTYTSQEDLVEKKCLAKKYTHLSCDKVFCQPWQRCIEGTCVCKLPYQCPKNGTAVCATNRRSFPTYCQQKSLECLHPGTKFLNNGTCTAEGKFSVSLKHGNTDSEGIVEVKLVDQDKTMFICKSSWSMREANVACLDLGFQQGADTQRRFKLSDLSINSTECLHVHCRGLETSLAECTFTKRRTMGYQDFADVVCYTQKADSPMDDFFQCVNGKYISQMKACDGINDCGDQSDELCCKACQGKGFHCKSGVCIPSQYQCNGEVDCITGEDEVGCAGFASVTQEETEILTADMDAERRRIKSLLPKLSCGVKNRMHIRRKRIVGGKRAQLGDLPWQVAIKDASGITCGGIYIGGCWILTAAHCLRASKTHRYQIWTTVVDWIHPDLKRIVIEYVDRIIFHENYNAGTYQNDIALIEMKKDGNKKDCELPRSIPACVPWSPYLFQPNDTCIVSGWGREKDNERVFSLQWGEVKLISNCSKFYGNRFYEKEMECAGTYDGSIDACKGDSGGPLVCMDANNVTYVWGVVSWGENCGKPEFPGVYTKVANYFDWISYHVG | 825 nM | > 500 nM |
